# From PubChem BioAssay AID463173 (ICCB-Longwood Screening Facility, Harvard Medical School, 2010)
# Among all 52,000 compounds or so, about 1,700 (3.3%) were called active. No stated cut-off is given here; in the data, active means survival mostly below about 52% (no sharp cut-off); inactive means mostly above about 56%. Some of the results follow.
# Test system: Wild type
# Experiment: growth inhibition of S. aureus wild type versus tarO mutant, primary screen, teichoic acid synthesis inhibitors, RN4220, OD600 (AID 463173)
# Conditions: S. aureus RN4220 wild type/DeltatarO growth, OD600, 18 h, active compounds read low, screened at 18.75 µg/mL (by protocol)
row,SMILES,survival
1,CCOc1ccccc1CNCc1c(C(=O)O)n(Cc2ccc(F)cc2)c2cc(C)ccc12,inactive: 84%
2,Cc1ccc(-c2noc(-c3cc(-c4ccc(F)cc4)n[nH]3)n2)cc1,inactive: 73%
3,CC(C(=O)O)N1CCCC1 (centres undefined),inactive: 92%
4,O=C(Nc1c(-c2ccccc2)nc2ccccn12)c1ccccc1F,inactive: 61%
5,CCn1cc(C(=O)NCCc2ccc(C)cc2)c(=O)c2cc(S(=O)(=O)N3CCc4ccccc4C3)ccc21,inactive: 76%
6,Cc1cc(C)cc(NC(=O)CNS(=O)(=O)c2ccc3nc(C)sc3c2)c1,inactive: 75%
7,O=c1[nH]c2ccc(Cl)cc2c(-c2ccccc2)c1N1CCOCC1,inactive: 123%
8,CCC(=O)OCCn1c(=O)c2ccccc2c2ccccc2c1=O,inactive: 90%
9,CN1C(=O)Cc2cc(S(=O)(=O)CCC(=O)Nc3ccc(OC(F)(F)F)cc3)ccc21,inactive: 82%
10,CCN(C(=O)C1CCCN(c2ncnc3c2nc2n3CCCCC2)C1)c1cccc(C)c1 (centres undefined),inactive: 84%
11,CCOc1ccc(OC(=O)c2c(-c3ccccc3Cl)noc2C)cc1,inactive: 59%
12,Cc1ccc(NC(=O)CN2C(=O)c3ccccc3Sc3ccc(C(=O)N4CCOCC4)cc32)c(Cl)c1,active: -6%
13,Cc1ccc(S(=O)(=O)N2CCCC2C(N)=O)cc1 (centres undefined),inactive: 107%
14,CCN(CC)S(=O)(=O)c1ccc2oc(C(=O)Nc3cc(C)ccc3OC)c(C)c2c1,inactive: 69%
15,CCc1cc2c(cc3c(=O)n(CC(=O)NCc4cc(Br)ccc4OC)ncn32)s1,inactive: 127%
16,CCOc1ccc(NC(=O)C2CCN(S(=O)(=O)c3c(C)noc3/C=C/c3cccs3)CC2)cc1,inactive: 115%
17,CCCCNC(=O)CN1C(=O)COc2ccc(S(=O)(=O)N3CCCCCC3)cc21,inactive: 88%
18,COc1ccc(C(=O)Nc2ccc3oc(-c4ccc5ccccc5c4)nc3c2)cc1Br,inactive: 71%
19,Cn1cccc1-c1cc2n(n1)CCC(=O)N2CCCC(=O)NCc1ccc(F)cc1,inactive: 92%
20,CCOc1ccc(-c2nnc(SCC(=O)c3ccccc3)n2-c2ccccc2)cc1,inactive: 113%
21,COC(=O)CNC(=O)N1CCN(S(=O)(=O)c2ccc3c(ccn3C)c2)CC1,inactive: 79%
22,Cc1cc(=O)[nH]c2nnc(SCc3ccc(C(F)(F)F)cc3)n12,inactive: 91%
23,Cc1ccc(NC(=O)c2ncoc2-c2ccco2)cc1Cl,inactive: 81%

row,SMILES,survival
1,Cc1cccc(C)c1NC(=O)Cn1c(SCC(=O)NCc2ccccc2)nc2ccccc21,inactive: 72%
2,COc1ccc2cc(CNc3ccc(OC)c(OC)c3)c(=O)n(CC(=O)Nc3ccccc3F)c2c1,inactive: 128%
3,CCOC(=O)c1[nH]c(C)c(CCC(=O)Nc2cccc(SC)c2)c1C,inactive: 76%
4,COc1ccccc1C(=O)NCC(=O)O,inactive: 120%
5,O=S(=O)(c1ccc(-c2csc(=Nc3ccc(OC(F)(F)Cl)cc3)n2CCCO)cc1)N1CCCC1,inactive: 132%
6,CC(C)CCNC(=O)c1ccc2c(c1)N(Cc1ccccc1F)C(=O)c1ccccc1S2(=O)=O,inactive: 89%
7,Fc1cccc(Cl)c1CNCCSc1nnnn1-c1ccccc1,inactive: 81%
8,N#CCn1c2ccc(Cl)cc2c2nc3ccccc3nc21,inactive: 114%
9,COc1cccc(C(=O)N(Cc2ccco2)c2ccccn2)c1,inactive: 103%
10,O=C(CNC(=O)c1ccccc1F)OCc1cc(=O)n2nc(C3CCCCC3)sc2n1,inactive: 68%
11,CC(=O)Nc1ccc(NC(=O)CCSCCc2ccccn2)cc1,inactive: 131%
12,CCC(=O)C1=C(c2ccc(OC)c(OC)c2)N(C(=O)CC)n2c(CC)nnc2S1,inactive: 55%
13,Cc1ccc(NC(=O)c2c(NC(=O)Cc3ccccc3)sc3c2CCCC3)cc1,inactive: 49%
14,CCOc1ccc(CCNC(=O)CN2C(=O)COc3ccc(S(=O)(=O)N4CCCCCC4)cc32)cc1,inactive: 71%
15,CC(=O)c1cccc(NC(=O)Cn2c(=O)oc3cc(S(=O)(=O)N4CCCC4)ccc32)c1,inactive: 149%
16,CN(C)c1ccc(-c2nnc3n(Cc4ccccc4)c(=O)c4ccccc4n23)cc1,inactive: 83%
17,N#Cc1c(-n2ncnc2-c2cccc(Br)c2)sc2c1CCCCC2,inactive: 45%
18,COc1ccc(-n2c(SCC(=O)Nc3cccc(C)c3C)nc3c([nH]c4ccccc43)c2=O)cc1,inactive: 95%
19,CN(C)c1ccc(CNC(=O)c2ccc(NC(=O)N3CCCCc4ccccc43)cc2)cc1,inactive: 131%
20,O=C(CSc1nnc(-c2ccncc2)n1Cc1ccco1)OC1CCCCC1,inactive: 101%
21,CC(C)(C)c1ccc(Oc2ccc(NC(=O)CCC(=O)OCC(=O)c3ccccc3)cc2)cc1,inactive: 86%
22,Cc1ccc2oc(=O)c3cc(C(=O)N4CCN(c5ccccc5F)CC4)sc3c2c1,inactive: 80%
23,O=C(CNCc1ccco1)Nc1cccc(OC(F)(F)F)c1,inactive: 119%

row,SMILES,survival
1,Cc1ccc(Cl)cc1N1CCN(C(=O)CCCn2c(=O)[nH]c3ccc(Br)cc3c2=O)CC1,inactive: 21%
2,CCc1ccccc1NC(=O)C1CCN(c2cnccn2)CC1,inactive: 82%
3,CCS(=O)(=O)C(=C1NCCO1)S(=O)(=O)CC,inactive: 109%
4,COc1cc(NC(=O)CSc2nccn2C)cc(OC)c1OC,inactive: 76%
5,Cc1csc(=Nc2ccccc2)n1-c1ccccc1,inactive: 94%
6,COc1ccc2c(c1)c1c(c(=O)n(-c3ccc(OC)c(OC)c3)c(=O)n1Cc1ccccc1F)n2C,inactive: 90%
7,CC(=O)c1nnn(-c2ccc(C)cc2Cl)c1C,inactive: 84%
8,CC(=O)c1ccc(Nc2ccc3cc(S(=O)(=O)N4CCCC4)ccc3n2)cc1,inactive: 72%
9,O=C(CCn1cnnn1)Nc1cc(C(F)(F)F)cc(C(F)(F)F)c1,inactive: 84%
10,CC(C)Oc1cccc(C2CC(=O)Nc3cc4c(cc32)OCO4)c1 (centres undefined),inactive: 87%
11,CCCCSCCCNC(=O)c1cn(C)c2ccc(S(=O)(=O)N3CCCCCC3)cc2c1=O,inactive: 72%
12,O=C(NCCS(=O)(=O)N1CCN(c2ccc(F)cc2)CC1)c1cccc(C(F)(F)F)c1,inactive: 72%
13,CC(C)CCn1nnc2sc(-c3ccccc3)cc2c1=O,inactive: 91%
14,CS(=O)(=O)N(CC(=O)Nc1ccc2c(c1)OCCO2)c1ccccc1,inactive: 110%
15,O=C(Nc1cccc(C(=O)N2CCN(c3cccc(Cl)c3)CC2)c1)c1nsc2ccccc12,inactive: 71%
16,COc1cc(OC)c(NC(=O)c2nn(-c3ccc(C)cc3)c(=O)c3c2c2ccccc2n3C)cc1Cl,inactive: 75%
17,CCc1ccccc1NC(=O)c1ccc2c(SCC(=O)O)c3c(nc2c1)CCC3,inactive: 81%
18,Cc1ccccc1Cn1c2ccccc2c2cnn(CC(=O)NCC(C)c3ccccc3)c(=O)c21 (centres undefined),inactive: 88%
19,O=C(NCc1ccccc1Cl)c1ccc(Cn2c(SCc3ccccc3)nc3cccnc32)cc1,inactive: 68%
20,CCOC(=O)C1CCN(C(=O)c2ccc(NC(=O)c3nsc4ccccc34)cc2)CC1,inactive: 129%
21,CSc1ccc(CCNC(=O)C(C)n2nc(C)c3sc4ccccc4c3c2=O)cc1 (centres undefined),inactive: 63%
22,CC1=CCC2(CO)COC(c3ccccc3O)C1C2 (centres undefined),inactive: 111%
23,O=C(CCn1ccc2cc(S(=O)(=O)N3CCCC3)ccc21)NCc1cccc(Cl)c1,active: -1%

row,SMILES,survival
1,Cc1ccc(NC(=O)c2ccc(CNS(=O)(=O)c3ccc4c(c3)C(C)(C)C(=O)N4C)cc2)cc1C,inactive: 85%
2,CC(=O)N1c2ccc(S(=O)(=O)NCC3CCC(C(=O)Nc4ccc(C)c(C)c4)CC3)cc2CC1C (centres undefined),inactive: 105%
3,Cc1cc(C(=O)NCc2cccc(Br)c2)c2c(C)nn(-c3ccccc3)c2n1,inactive: 120%
4,COCCCn1c(=N)c(C(=O)NCc2cccnc2)cc2c(=O)n3cc(C)ccc3nc21,inactive: 67%
5,COc1ccc(OC)c(Nc2ncnc3c2nc2n3CCCC2)c1,inactive: 77%
6,COc1cc(CCNC(=O)c2ccc3c(c2)c(C)c(C)n3Cc2cccc(C)c2)cc(OC)c1OC,inactive: 89%
7,CCc1nnc(SCc2ccc(OC)cc2)c2cc3sc(C)cc3n12,inactive: 88%
8,CCOc1ccc(NC(=O)c2nc3nc(C)cc(C(F)F)n3n2)cc1,inactive: 69%
9,Cc1cc(C)c2c(-n3cccc3)c(C(=O)NCc3cccc(F)c3)sc2n1,inactive: 93%
10,C=CCN(CC=C)C(=O)C(C)N1CCN(C2CCCCC2)CC1 (centres undefined),inactive: 112%
11,Oc1ccc(-c2nc(-c3ccccc3)c(-c3ccc(Br)cc3)[nH]2)cc1,active: -2%
12,Cc1nn(-c2ccccc2)c2c1cc1c(=O)n(C)c(=O)nc-1n2-c1cccc(Cl)c1,inactive: 83%
13,COc1ccccc1NC(=O)C1CCN(S(=O)(=O)c2ccc3[nH]c4c(c3c2)CCCCC4)CC1,inactive: 125%
14,Cc1cc(C)c(NC(=O)CCn2c(=O)c3cccn3c3ccccc32)c(C)c1,inactive: 76%
15,CCN1CCN(C(c2ccc(SC)cc2)c2c(O)cc(C)n(Cc3ccco3)c2=O)CC1 (centres undefined),inactive: 95%
16,COc1ccc(-c2cc(=O)c3cc(OCC(=O)OC(C)C)ccc3o2)cc1,inactive: 121%
17,CCOc1ccc(NC(=O)C2CCC(N3C(=O)C4CC=CCC4C3=O)CC2)cc1 (centres undefined),inactive: 119%
18,COc1cc(NC(=O)CCS(=O)(=O)c2nc(-c3ccc4c(c3)OCO4)cc(C(F)(F)F)n2)cc(OC)c1OC,inactive: 92%
19,COC(=O)c1sc(N2C(=O)c3oc4ccccc4c(=O)c3C2c2ccc(O)cc2)nc1C (centres undefined),inactive: 132%
20,COCCCN1C(=O)c2[nH]nc(-c3ccccc3O)c2C1c1ccc(OCc2ccccc2)cc1 (centres undefined),inactive: 22%
